# Among all 150,000 compounds or so, about 540 (0.36%) showed an effect of 50% or more. This is one part of the list.
# Test system: Plasmodium falciparum
# Test: Primary screen in NF54 nanoGlo assay, in single point, at 2uM, 72h; a lower Z score goes with more inhibition
# Assay type: functional, Erythrocyte
# Details: timepoint 72 hour
Structure (SMILES),% Inhibition,Z score
CCc1nc(=O)c(C#N)nn1-c1ccc(OC)cc1,-3%,0.38
Cc1nn(CC(=O)N(C)c2ccccc2)c(C)c1Br,5%,-0.65
Cn1ccc(NC(=O)CC2(N3Cc4ccccc4C3=O)CCCCC2)n1,-3%,0.41
CCc1nnc(CN(CC)C(=O)Nc2ccc3c(c2)C[C@H](C)O3)o1,-12%,2.25
c1nc(N2CC3CCCC3C2)c2cn[nH]c2n1 (stereo not drawn),2%,-0.24
Cc1nc(N)nc(C)c1C(=O)Nc1ccc(Nc2ncccn2)cc1,43%,-8.17
CC1CC(C(=O)Nc2ccccc2-c2cn[nH]c2)CC(=O)N1 (stereo not drawn),-1%,0.24
Cc1cc(C)c2[nH]c(C)c(CC(=O)NCc3nnc(C)o3)c2c1,-19%,2.25
O=C(NCc1nccn1CCCc1ccccc1)N1CCc2c(F)cccc21,-12%,1.25
CC(NC1CC(O)C1(C)C)c1cc2n(n1)CCC2 (stereo not drawn),-4%,0.59
Cc1noc(C)c1S(=O)(=O)N[C@H]1CCOC[C@@H]1OCc1cscn1,-12%,2.34
COC(CNC(=O)C1CCCO1)c1ccccc1 (stereo not drawn),3%,-0.48
CCN(Cc1nc(C)no1)C(=O)[C@@H]1COc2c(cccc2OC)C1,-1%,0.08
CCCCN(CC)c1cc(Oc2ccc(Cl)cc2)ncn1,-8%,0.73
CC(=O)N1CCC([C@@H]2CN(C(=O)Cc3cccc(C)c3)C[C@H]2CO)CC1,-5%,0.96
O=C(Cc1ccoc1)N1CCC[C@H](Cn2cnc3ccccc32)C1,19%,-2.36
Cc1ccc(C(=O)NS(=O)(=O)C[C@H]2CCCO2)nc1C,1%,-0.15
CCOC(=O)N1CCC[C@@]2(CCN(Cc3nc(-c4ccccc4)no3)C2)C1,-8%,1.05
Cc1ccc(OCC(=O)N2CC[C@@H](N)C2)c(C)c1,-1%,0.12
O=C(O)[C@@H]1CN(C(=O)c2nc(-c3ccccc3)n(-c3ccccc3)n2)CCO1,-9%,1.36
CNc1nc(Nc2ccc(OC(F)(F)Cl)cc2)nc(N2CCN(c3cccc(Cl)c3)CC2)n1,-11%,1.51

Structure (SMILES),% Inhibition,Z score
CCOc1ccccc1CN[C@@H](CC)CO,-6%,1.17
COCCc1nc2c(c(N3CCN(c4cccc(C)c4)CC3)n1)CCOCC2,4%,-0.38
CCCN(CC(=O)O)S(=O)(=O)c1c(Cl)cccc1Cl,3%,-0.44
O=C1CCN(Cc2cccc(OC(F)(F)F)c2)CCCCCCN1,-13%,2.28
CCOC1CC(N(C)CC(=O)Nc2c(C)nn(C)c2C)C12CCCC2 (stereo not drawn),-11%,1.54
CCOC(=O)c1cc(-c2ccc(N3CCN(C(=O)c4cnn(C)c4Cl)CC3)cc2)n(-c2ccccn2)n1,-4%,0.4
CNS(=O)(=O)c1cc(C(=O)N[C@@H]2C(=O)OCC2(C)C)ccc1OC,-4%,0.34
O=C(CCNCCc1nc2c(s1)CCC2)N1CCc2ccccc2C1,-8%,1.2
Cc1ccc(C)c(NC(=O)NCCn2nnc3cc(S(=O)(=O)NC(C)C)ccc32)c1,32%,-3.66
CC(=O)N1CCC(NCc2cccc3c2OC(C)(C)C3)C(C)C1 (stereo not drawn),-4%,0.5
c1csc(-c2nnc(N3CCNCC3)s2)c1,-4%,0.48
CC[C@@H](c1nc2c3cnn(-c4ccccc4)c3ncn2n1)n1cc(Br)cn1,6%,-0.96
CC(C)c1nc(C(=O)N2CCCCCC2C2CCCCC2=O)cs1 (stereo not drawn),-2%,0.24
CC(C)N1CCC(NC(=O)c2ccon2)C1c1ccc(F)c(F)c1 (stereo not drawn),9%,-0.9
CC(C)(C)c1ccc2oc(CN3C[C@@H](C(=O)O)CC3=O)nc2c1,7%,-0.92
CS(=O)(=O)CCN1CCC[C@H](c2ccc(F)cc2)CC1,-4%,0.59
O=C1CN(Cc2ccc(F)cc2Cl)S(=O)(=O)c2ccccc2N1Cc1ccccc1F,9%,-1.07
N=C(COc1ccc(Cl)cc1)NC1CCCCC1,-2%,0.23
CCNc1ccccc1CNc1nncn1C,-5%,0.62
Cc1nc(C(=O)Nc2ccc(Cl)c(-n3nnnc3C3CC3)c2)c(=O)[nH]c1C,-9%,0.76
Cc1ccc(C)c(NC(=O)[C@H]2CCCN(S(=O)(=O)c3ccc4c(c3)NC(=O)CO4)C2)c1,-11%,1.84

Structure (SMILES),% Inhibition,Z score
COCC(C)NC(=O)C(C#N)C(=NCc1ccccc1)NCCc1nc(C)c(C)s1 (stereo not drawn),-18%,2.4
CC(=O)c1ccc2c(c1)N(Cc1ccc(C(=O)NCc3ccccn3)cc1)C(=O)CO2,-22%,1.93
Cc1nc(C2(NC(=O)c3ccccc3)CCCCC2)sc1C(=O)Nc1ccccc1,-8%,1.4
Cc1ncc(CNc2ccccc2C(=O)NCC(F)(F)F)s1,-6%,0.74
Cc1cccc(C)c1CCNC(=O)Cn1cnc2c1CCNC21CCOCC1,-6%,1.02
CN1CCC[C@H](Cn2ccc3ccccc3c2=O)C1,-10%,1.9
COC(=O)c1ccccc1CN(Cc1cccn1Cc1ccc(C)cc1)CC1CCCCC1,-10%,1.06
CCC1CCCCN1C(=O)CC1(c2ccccc2C)CC(=O)N(Cc2ccncc2)C1=O (stereo not drawn),-8%,1.02
Oc1ccc(N2CCN(Cc3nc4ccccc4o3)CC2)cc1,10%,-1.18
Cc1ccc(-c2cc(C(=O)N(Cc3ccccc3)[C@H]3CCS(=O)(=O)C3)no2)cc1F,-11%,2.13
CCn1cc(-c2ccc(Cl)cc2)cc1C(=O)N1CCCC1,-2%,0.32
CC(C)(NC(=O)CCc1cn[nH]c1)c1ccccc1Br,2%,-0.35
CCCc1cc(C(=O)NC2CCCCCC2)n[nH]1,-7%,1.05
Cc1ccc(C2C(C)CCCN2C(=O)NC2CC2)cc1 (stereo not drawn),0%,0.01
O=C(NC[C@@H]1CCCN2CCCC[C@H]12)c1cc(-c2ccsc2)n[nH]1,-1%,0.13
O=C(c1cnc(COc2ccc(F)cc2)nc1O)N1Cc2ccccc2C1,-15%,1.49
COC(C)[C@H](C)NC(=O)NC1CCCCC1n1cccn1 (stereo partly drawn),-4%,0.51
c1ccc(CC2CCN(c3[nH]cnc4ncnc3-4)CC2)cc1,39%,-4.37
O=C(NCC1(C2CCC2)CCC1)c1ncoc1C(F)(F)F,-6%,1.15
NC(=O)N1CCCN(C[C@H](O)c2ccc(C(F)(F)F)cc2)CC1,-10%,1.9
Cc1cccc(CN2[C@H](CNC(=O)c3c(C)noc3C)CN(C)C(=O)[C@@H]2C)c1,-6%,0.8

Structure (SMILES),% Inhibition,Z score
O=C(NCC1(NC(=O)C2CCCC2)CCOCC1)C1CCCC1,-12%,1.05
O=C(C[C@@]1(O)C(=O)N(CN2CCOCC2)c2ccccc21)c1ccc2ccccc2c1,-1%,0.24
NC(=O)[C@@H]1CC(C(=O)Nc2cn[nH]c2)=NN1c1ccccc1,3%,-0.26
CC1CCC(NC(=O)[C@H]2CCCN(S(=O)(=O)N3CCCCCC3)C2)CC1 (stereo partly drawn),-17%,2.09
CC(C)[C@@H]1C[C@H]1CNc1cccc(C(=O)O)n1,12%,-1.59
CCCCC(=O)Nc1ccc(NC(=O)[C@@H](C)CN(C)C)cc1Cl,-12%,1.57
Cc1nn(C)c(NC(=O)C(C)OC2CCCC(C)C2)c1C (stereo not drawn),-2%,0.34
CCc1nc(C(C)C)ccc1C(=O)NC[C@H](C)c1nncn1C,-5%,0.66
O=C(c1ccc(O)cc1)N1C[C@H]2CC[C@@H](C1)N(Cc1ccccc1)C2,-3%,0.45
CCn1nc(C(C)(C)c2cc(N)n(CC)n2)cc1N,0%,0
Cc1nc2ccccn2c1CC(=O)NCC[C@H]1CCCOC1,-21%,2.75
COC[C@H](C)N1CCC(CCC(=O)Nc2ccc3c(c2)OCCO3)CC1,-17%,2.71
COc1ccc(C(=O)N2c3cc(CNS(=O)(=O)c4cccs4)ccc3C[C@@H]2C)cc1,-8%,0.85
Cc1c(CCO)c(=O)n(-c2ccccc2)n1S(=O)(=O)c1c(Cl)cc(Cl)cc1Cl,39%,-1.11
CN(C[C@]1(O)CCc2ccccc21)C(=O)NCCc1ccccn1,-10%,1.42
O=C(NCC#CCOc1cccc(C(F)(F)F)c1)c1ccno1,-9%,1.34
Cc1cc(O[C@H]2CCCN(S(=O)(=O)Cc3cccc(F)c3)C2)nc(C)n1,15%,-2.12
O=C(Nc1cnccc1O)C1CC1c1ccccc1C(F)(F)F (stereo not drawn),0%,0.04
Cc1nc(-c2ccc(C(F)(F)F)cc2)nc(N2CCN(C(=O)c3cc(C(F)(F)F)cc(C(F)(F)F)c3)CC2)c1C(C)C,35%,-0.64
CN(C[C@H]1COCCO1)C(=O)Nc1ccc(-c2ccco2)cc1,-20%,1.74
CC(=O)Oc1c(-c2ccc(NC(=O)CC(C)C)cc2)c(-c2ccc(N(C)C)cc2)nn1-c1ccc(F)cc1,20%,-2.46

# Source: ChEMBL document CHEMBL4888484, “Replenishing the malaria drug discovery pipeline: Screening and hit evaluation of the MMV Hit Generation Library 1 (HGL1) against asexual blood stage Plasmodium falciparum ,using a nano luciferase reporter read-out” (2022)
